According to patent US12583836B2 (Anaxis Pharma Pty Ltd, priority 2020, dated 2026):
Blank lines part the entries; values can stand above or below the compound they belong to.

Legend:
[1] = test system: U937 human histiocytic leukemia cell line; assay: Inhibition of TSQ induced necroptosis, 384 well plate format (CellTitre-Glo); conditions: Homo sapiens, U-937; U937 cells, TSQ cocktail (TNF, Smac mimetic, Q-VD-OPh), CelltiterGlo; read-out: Inhibition of TSQ-induced necroptosis (IC50 cell-based assay)
Procedure, shortened: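 Necroptosis was induced in U937 cells (20,000/well) by hTNF-Fc 100 ng/ml, Smac mimetic 500 nM and Q-VD-OPh 10 μM for 48 h at 37 °C. Compounds were run as a 10-point 1:3 series from 36 μM in 0.3% DMSO. Viability was read by CellTiter-Glo luminescence (DMSO = 100%, DMSO+TSQ = 0%), and IC50 was taken from a 4-parameter fit.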

U937 cells = assay: Counter screen: cell viability without the TSQ cocktail (CelltiterGlo); parameters: species or system human; conditions: Homo sapiens, U-937, cell viability by CelltiterGlo, read-out: Off-target effect (IC50 cell-based assay)
Protocol: Counter screen: In parallel, all compounds were tested for their ability to affect cell viability. The same U937 cells were treated with compound in DMSO without the TSQ cocktail. This counter screen enabled evaluation of off-target effects. In this case, cell viability was measured by CelltiterGlo.

RIP3 = target: T1, RIP3 (Homo sapiens, UniProt Q9Y572); assay: KINOMEscan binding assay, RIP3; conditions: equilibrium dissociation constant, class symbols
T1 construct: purchased DiscoverX (KINOMEscan service); host or cells: E. coli BL21-derived (T7 phage) or HEK293
T1 sequence (Q9Y572 whole entry): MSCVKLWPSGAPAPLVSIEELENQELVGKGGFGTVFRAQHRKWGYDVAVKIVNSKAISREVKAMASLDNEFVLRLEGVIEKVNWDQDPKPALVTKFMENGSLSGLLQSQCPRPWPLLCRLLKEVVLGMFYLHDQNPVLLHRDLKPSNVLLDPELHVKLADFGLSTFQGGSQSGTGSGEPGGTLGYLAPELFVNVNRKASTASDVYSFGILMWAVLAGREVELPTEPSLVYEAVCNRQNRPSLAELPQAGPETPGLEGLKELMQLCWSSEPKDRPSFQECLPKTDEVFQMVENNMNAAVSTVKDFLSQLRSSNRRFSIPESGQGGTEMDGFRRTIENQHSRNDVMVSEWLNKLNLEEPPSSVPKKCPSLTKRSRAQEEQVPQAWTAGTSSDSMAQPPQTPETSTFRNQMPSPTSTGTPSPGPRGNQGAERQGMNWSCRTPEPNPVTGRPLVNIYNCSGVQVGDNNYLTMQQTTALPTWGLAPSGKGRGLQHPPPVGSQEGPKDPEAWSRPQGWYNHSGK
Description: The Hill Slope was set to −1.

RIP1 = target: T2, RIP1 (Homo sapiens, UniProt Q13546); assay: KINOMEscan binding assay, RIP1; conditions: equilibrium dissociation constant, class symbols
T2 construct: purchased DiscoverX (KINOMEscan service); host or cells: E. coli BL21-derived (T7 phage) or HEK293
T2 sequence (Q13546 1-671): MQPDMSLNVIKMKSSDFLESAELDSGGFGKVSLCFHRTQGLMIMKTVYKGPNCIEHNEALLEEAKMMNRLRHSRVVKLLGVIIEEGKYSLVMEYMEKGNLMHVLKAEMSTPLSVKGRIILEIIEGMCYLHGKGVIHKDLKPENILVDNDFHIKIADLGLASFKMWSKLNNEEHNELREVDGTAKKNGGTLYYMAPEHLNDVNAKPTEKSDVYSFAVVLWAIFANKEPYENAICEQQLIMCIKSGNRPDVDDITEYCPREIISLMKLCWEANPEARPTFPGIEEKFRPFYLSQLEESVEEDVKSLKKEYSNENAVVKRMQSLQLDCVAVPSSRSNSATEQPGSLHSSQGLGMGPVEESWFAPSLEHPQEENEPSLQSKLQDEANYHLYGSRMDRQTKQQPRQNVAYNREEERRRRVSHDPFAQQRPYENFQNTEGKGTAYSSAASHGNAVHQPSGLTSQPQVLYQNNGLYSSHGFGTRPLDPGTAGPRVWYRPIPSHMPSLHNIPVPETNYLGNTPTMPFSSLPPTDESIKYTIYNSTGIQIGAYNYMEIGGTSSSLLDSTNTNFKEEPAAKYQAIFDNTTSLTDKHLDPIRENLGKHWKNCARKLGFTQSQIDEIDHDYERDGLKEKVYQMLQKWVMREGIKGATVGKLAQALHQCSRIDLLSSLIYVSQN

- Kd (RIP3): > 30 µM
- Kd (RIP1): > 30 µM
Structure (SMILES): NC(=O)c1c(-c2ccc(NS(=O)(=O)CC(F)(F)F)c(OCc3ccc(F)cc3)c2)n[nH]c1Nc1ccnc(C(F)(F)F)n1 [Compound 186, 3-(3-((4-fluorobenzyl)oxy)-4-((2,2,2-trifluoroethyl)sulfonamido)phenyl)-5-((2-(trifluoromethyl)pyrimidin-4-yl)amino)-1H-pyrazole-4-carboxamide]

- Kd (RIP3): 1 to 30 µM
- Kd (RIP1): > 30 µM
Structure (SMILES): NC(=O)c1c(-c2ccc(NS(=O)(=O)CCC(F)(F)F)cc2)n[nH]c1Nc1cccc(C(F)(F)F)n1 [Compound 189, 5-((6-(trifluoromethyl)pyridine-2-yl)amino)-3-(4-((3,3,3-trifluoropropyl)sulfonamido)phenyl)-1H-pyrazole-4-carboxamide]

- Kd (RIP3): > 30 µM
- Kd (RIP1): > 30 µM
Structure (SMILES): N#Cc1cccc(Nc2[nH]nc(-c3ccc(NS(=O)(=O)CC(F)(F)F)cc3)c2C(N)=O)n1 [Compound 237, 5-[(6-cyanopyridin-2-yl)amino]-3-[4-(2,2,2-trifluoroethanesulfonamido)phenyl]-1H-pyrazole-4-carboxamide]

- Kd (RIP3): > 30 µM
- Kd (RIP1): > 30 µM
Structure (SMILES): NC(=O)c1c(-c2ccc(NS(=O)(=O)CC(F)(F)F)c(OCc3ccc(F)cn3)c2)n[nH]c1Nc1ccccn1 [Compound 240, 3-{3-[(5-fluoropyridin-2-yl)methoxy]-4-(2,2,2-trifluoroethanesulfonamido)phenyl}-5-[(pyridin-2-yl)amino]-1H-pyrazole-4-carboxamide]

- Kd (RIP3): > 30 µM
- Kd (RIP1): > 30 µM
Structure (SMILES): C[C@H](Oc1cc(NS(=O)(=O)CC(F)(F)F)ccc1-c1n[nH]c(Nc2cnccn2)c1C(N)=O)c1ccc(F)cc1 [Compound 244, 3-{2-[(1S)-1-(4-fluorophenyl)ethoxy]-4-(2,2,2-trifluoroethanesulfonamido)phenyl}-5-[(pyrazin-2-yl)amino]-1H-pyrazole-4-carboxamide]

- Kd (RIP3): > 30 µM
- Kd (RIP1): > 30 µM
Structure (SMILES): NC(=O)c1cccc(Nc2[nH]nc(-c3ccc(NS(=O)(=O)C(F)F)cc3)c2C(N)=O)n1 [Compound 257, 6-({4-carbamoyl-3-[4-(difluoromethanesulfonamido)phenyl]-1H-pyrazol-5-yl}amino)pyridine-2-carboxamide]

- Kd (RIP3): > 30 µM
- Kd (RIP1): > 30 µM
Structure (SMILES): C[C@H](Oc1cc(-c2n[nH]c(Nc3cnccn3)c2C(N)=O)ccc1NS(=O)(=O)CC(F)(F)F)c1ccccn1 [Compound 267, 5-[(pyrazin-2-yl)amino]-3-{3-[(1S)-1-(pyridin-2-yl)ethoxy]-4-(2,2,2-trifluoroethanesulfonamido)phenyl]-1H-pyrazole-4-carboxamide]

Second part, the compound before the results:

Structure (SMILES): CC(Oc1cc(-c2n[nH]c(Nc3cnccn3)c2C(N)=O)ccc1NS(=O)(=O)C(F)F)c1ncco1 (racemic) [Compound 293, 3-(4-((difluoromethyl)sulfonamido)-3-(1-(oxazol-2-yl)ethoxy)phenyl)-5-(pyrazin-2-ylamino)-1H-pyrazole-4-carboxamide]
- IC50 [1]: 0.01 to 1 µM
- IC50 (U937 cells): > 30 µM
- Kd (RIP3): > 30 µM
- Kd (RIP1): > 30 µM

Structure (SMILES): COC[C@@H](Cc1cc(-c2n[nH]c(Nc3cnccn3)c2C(N)=O)ccc1NS(=O)(=O)C(F)F)c1ccc(F)cc1 (single isomer, unassigned) [Compound 273]
- IC50 [1]: 0.01 to 1 µM
- IC50 (U937 cells): > 30 µM
- Kd (RIP3): > 30 µM
- Kd (RIP1): > 30 µM

Structure (SMILES): CCS(=O)(=O)Nc1ccc(-c2n[nH]c(Nc3cnc(OC)cn3)c2C(N)=O)cc1OCc1ccc(F)cc1 [Compound 14, 3-(4-(ethylsulfonamido)-3-((4-fluorobenzyl)oxy)phenyl) 5-((5-methoxypyrazin-2-yl)amino)-1H-pyrazole-4 carboxamide]
- IC50 [1]: 0.01 to 1 µM
- IC50 (U937 cells): > 30 µM
- Kd (RIP3): > 30 µM
- Kd (RIP1): > 30 µM

Structure (SMILES): CCS(=O)(=O)Nc1ccc(-c2n[nH]c(Nc3cnccn3)c2C(N)=O)c(OCc2ccc(F)cc2)c1 [Compound 21, 3-(4-(ethylsulfonamido)-2-((4-fluorobenzyl)oxy)phenyl)-5-(pyrazin-2-ylamino)-1H-pyrazole-4-carboxamide]
- IC50 [1]: 1 to 30 µM
- IC50 (U937 cells): > 30 µM
- Kd (RIP3): > 30 µM
- Kd (RIP1): > 30 µM

Structure (SMILES): CCS(=O)(=O)Nc1ccc(-c2n[nH]c(Nc3cnccn3)c2C(N)=O)cc1OCc1cccc(Cl)c1 [Compound 41, 3-(3-((3-chlorobenzyl)oxy)-4-(ethylsulfonamido)phenyl)-5-(pyrazin-2-ylamino)-1H-pyrazole-4-carboxamide]
- IC50 [1]: 1 to 30 µM
- IC50 (U937 cells): > 30 µM
- Kd (RIP3): > 30 µM
- Kd (RIP1): > 30 µM

Structure (SMILES): NC(=O)c1c(-c2ccc(NS(=O)(=O)CCC(F)(F)F)c(OCc3ccc(F)cc3)c2)n[nH]c1Nc1cccc(C(F)(F)F)n1 [Compound 182, 3-(3-((4-fluorobenzyl)oxy)-4-((3,3,3-trifluoropropyl)sulfonamido)phenyl)-5-((6-(trifluoromethyl)pyridine-2-yl)amino)-1H-pyrazole-4-carboxamide]
- Kd (RIP3): > 30 µM
- Kd (RIP1): > 30 µM

Structure (SMILES): NC(=O)c1c(-c2ccc(NS(=O)(=O)CCC(F)(F)F)c(OCc3ccc(F)cc3)c2)n[nH]c1Nc1cnccn1 [Compound 184, 3-(3-((4-fluorobenzyl)oxy)-4-((3,3,3-trifluoropropyl)sulfonamido)phenyl)-5-(pyrazin-2-ylamino)-1H-pyrazole-4-carboxamide]
- Kd (RIP3): > 30 µM
- Kd (RIP1): > 30 µM

Structure (SMILES): CCS(=O)(=O)Nc1ccc(-c2n[nH]c(Nc3cnccn3)c2C(N)=O)cc1O[C@H](C)c1ccc(F)cc1 [Compound 193, (R)-3-(4-(ethylsulfonamido)-3-(1-(4-fluorophenyl)ethoxy)phenyl)-5-(pyrazin-2-ylamino)-1H-pyrazole-4-carboxamide]
- Kd (RIP3): > 30 µM
- Kd (RIP1): > 30 µM

Structure (SMILES): CCS(=O)(=O)Nc1ccc(-c2n[nH]c(Nc3ccc(OC)nc3)c2C(N)=O)cc1OCc1ccc(F)cc1 [Compound 197, 3-(4-(ethylsulfonamido)-3-((4-fluorobenzyl)oxy)phenyl)-5-((6-methoxypyridin-3-yl)amino)-1H-pyrazole-4-carboxamide]
- Kd (RIP3): 1 to 30 µM
- Kd (RIP1): > 30 µM

Structure (SMILES): CCS(=O)(=O)Nc1ccc(-c2n[nH]c(Nc3ccccn3)c2C(N)=O)c(OCc2ccc(F)cc2)c1 [Compound 201]
- Kd (RIP3): > 30 µM
- Kd (RIP1): > 30 µM

Structure (SMILES): CCS(=O)(=O)Nc1ccc(-c2n[nH]c(Nc3ccc(C(F)(F)F)cn3)c2C(N)=O)cc1OCc1ccc(F)cc1 [Compound 207]
- Kd (RIP3): > 30 µM
- Kd (RIP1): > 30 µM

Structure (SMILES): CCS(=O)(=O)Nc1ccc(-c2n[nH]c(Nc3cnccn3)c2C(N)=O)cc1OCc1ccc(OC(F)(F)F)cc1 [Compound 215, 3-(4-(ethylsulfonamido)-3-((4-(trifluoromethoxy)benzyl)oxy)phenyl)-5-(pyrazin-2-ylamino)-1H-pyrazole-4-carboxamide]
- Kd (RIP3): > 30 µM
- Kd (RIP1): > 30 µM

Structure (SMILES): CCS(=O)(=O)Nc1ccc(-c2n[nH]c(Nc3cnccn3)c2C(N)=O)cc1OCc1cccc(C(F)(F)F)c1 [Compound 218, 3-(4-(ethylsulfonamido)-3-((3-(trifluoromethyl)benzyl)oxy)phenyl)-5-(pyrazin-2-ylamino)-1H-pyrazole-4-carboxamide]
- Kd (RIP3): > 30 µM
- Kd (RIP1): > 30 µM

Structure (SMILES): CCS(=O)(=O)Nc1ccc(-c2n[nH]c(Nc3ccc4cc(Cl)ccc4n3)c2C(N)=O)cc1OCc1ccc(F)cc1 [Compound 220, 5-((6-chloroquinolin-2-yl)amino)-3-(4-(ethylsulfonamido)-3-((4-fluorobenzyl)oxy)phenyl)-1H-pyrazole-4-carboxamide]
- Kd (RIP3): > 30 µM
- Kd (RIP1): > 30 µM

Structure (SMILES): NC(=O)c1c(-c2ccc(NS(=O)(=O)C(F)F)c(OCc3ccc(F)c(F)c3)c2)n[nH]c1Nc1ccccn1 [Compound 226]
- Kd (RIP3): > 30 µM
- Kd (RIP1): > 30 µM

Structure (SMILES): CCS(=O)(=O)Nc1ccc(-c2n[nH]c(Nc3cnccn3)c2C(N)=O)cc1OC(C)(C)c1ccc(F)cc1 [Compound 228, 3-(4-ethanesulfonamido-3-{[2-(4-fluorophenyl)propan-2-yl]oxy}phenyl)-5-[(pyrazin-2-yl)amino]-1H-pyrazole-4-carboxamide]
- Kd (RIP3): > 30 µM
- Kd (RIP1): > 30 µM

Structure (SMILES): CCS(=O)(=O)Nc1ccc(-c2n[nH]c(Nc3cnccn3)c2C(N)=O)cc1OC1CCCc2ccccc21 (stereo not shown) [Compound 232, 3-[4-ethanesulfonamido-3-(1,2,3,4-tetrahydronaphthalen-1-yloxy)phenyl]-5-[(pyrazin-2-yl)amino]-1H-pyrazole-4-carboxamide]
- Kd (RIP3): > 30 µM
- Kd (RIP1): > 30 µM
